The supplement of paper PMC8728848
The other results are listed elsewhere or left out.

Legend:
Assay in all cases: glycan array binding signal (z-score within array); higher = stronger binding
Settings in all cases: glycan notation: IUPAC condensed, linker removed
[1] = target: Man(a1-2)Man(a1-3)[Man(a1-2)Man(a1-6)]Man(a1-6)[Man(a1-2)Man(a1-2)Man(a1-3)]Man
Method in brief: (§1)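 Arrays were curated from the Consortium for Functional Glycomics database, 3228 in total, and kept only where the protein sequence was available. Binding is expressed as a within-array Z-score. This score was averaged across arrays of the same protein sequence at different concentrations or buffers and across linkers, and negative values can be read as non-binding.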

[2] = target: Man(a1-2)Man(a1-3)[Man(a1-2)Man(a1-6)]Man(a1-6)[Man(a1-2)Man(a1-2)Man(a1-3)]Man(b1-4)GlcNAc(b1-4)GlcNAc
Method in brief: as §1

[3] = target: Man(a1-2)Man(a1-3)[Man(a1-6)]Man(a1-6)[Man(a1-2)Man(a1-3)]Man(b1-4)GlcNAc(b1-4)GlcNAc
Method in brief: as §1

[4] = target: Man(a1-2)Man(a1-6)[Man(a1-3)]Man(a1-6)[Man(a1-2)Man(a1-2)Man(a1-3)]Man
Method in brief: as §1

[5] = target: Man(a1-2)Man(a1-6)[Man(a1-3)]Man(a1-6)[Man(a1-2)Man(a1-2)Man(a1-3)]Man(b1-4)GlcNAc(b1-4)GlcNAc
Method in brief: as §1

[6] = target: Man(a1-3)[Man(a1-6)]Man
Method in brief: as §1

[7] = target: Man(a1-3)[Man(a1-6)]Man(a1-6)[Man(a1-2)Man(a1-3)]Man(b1-4)GlcNAc(b1-4)GlcNAc
Method in brief: as §1

[8] = target: Man(a1-3)[Man(a1-6)]Man(a1-6)[Man(a1-3)]Man
Method in brief: as §1

[9] = target: Man(a1-3)[Man(a1-6)]Man(a1-6)[Man(a1-3)]Man(b1-4)GlcNAc(b1-4)GlcNAc
Method in brief: as §1

[10] = target: Man(a1-3)[Man(a1-6)]Man(b1-4)GlcNAc(b1-4)GlcNAc
Method in brief: as §1

[11] = target: Man(a1-3)[Man(a1-6)]Man(b1-4)GlcNAc(b1-4)[Fuc(a1-6)]GlcNAc
Method in brief: as §1

[12] = target: Man(a1-6)Man
Method in brief: as §1

[13] = target: Man(b1-4)GlcNAc
Method in brief: as §1

[14] = target: MurNAc(b1-4)GlcNAc
Method in brief: as §1

[15] = target: Neu5Ac(a2-3)Gal
Method in brief: as §1

[16] = target: Neu5Ac(a2-3)Gal(b1-3)GalNAc
Method in brief: as §1

[17] = target: Neu5Ac(a2-3)Gal(b1-3)GalNAc(b1-3)Gal(a1-4)Gal(b1-4)Glc
Method in brief: as §1

[18] = target: Neu5Ac(a2-3)Gal(b1-3)GalNAc(b1-4)[Neu5Ac(a2-3)]Gal(b1-4)Glc
Method in brief: as §1

[19] = target: Neu5Ac(a2-3)Gal(b1-3)GalNAc(b1-4)[Neu5Ac(a2-8)Neu5Ac(a2-3)]Gal(b1-4)Glc
Method in brief: as §1

[20] = target: Neu5Ac(a2-3)Gal(b1-3)GalNAc6S
Method in brief: as §1

[21] = target: Neu5Ac(a2-3)Gal(b1-3)GlcNAc
Method in brief: as §1

[22] = target: Neu5Ac(a2-3)Gal(b1-3)GlcNAc(b1-2)Man
Method in brief: as §1

[23] = target: Neu5Ac(a2-3)Gal(b1-3)GlcNAc(b1-2)Man(a1-3)[GlcNAc(b1-4)][Neu5Ac(a2-3)Gal(b1-3)GlcNAc(b1-2)Man(a1-6)]Man(b1-4)GlcNAc(b1-4)GlcNAc
Method in brief: as §1

[24] = target: Neu5Ac(a2-3)Gal(b1-3)GlcNAc(b1-2)Man(a1-3)[Neu5Ac(a2-3)Gal(b1-3)GlcNAc(b1-2)Man(a1-6)]Man(b1-4)GlcNAc(b1-4)GlcNAc
Method in brief: as §1

[25] = target: Neu5Ac(a2-3)Gal(b1-3)GlcNAc(b1-3)Gal(b1-3)GlcNAc
Method in brief: as §1

[26] = target: Neu5Ac(a2-3)Gal(b1-3)GlcNAc(b1-3)Gal(b1-4)GlcNAc
Method in brief: as §1

[27] = target: Neu5Ac(a2-3)Gal(b1-3)GlcNAc(b1-3)GalNAc
Method in brief: as §1

[28] = target: Neu5Ac(a2-3)Gal(b1-3)GlcNAc(b1-4)Gal(b1-4)Glc
Method in brief: as §1

[29] = target: Neu5Ac(a2-3)Gal(b1-3)GlcNAc(b1-6)GalNAc
Method in brief: as §1

[30] = target: Neu5Ac(a2-3)Gal(b1-3)GlcNAc6S
Method in brief: as §1

[31] = target: Neu5Ac(a2-3)Gal(b1-3)[Fuc(a1-4)]GlcNAc
Method in brief: as §1

[32] = target: Neu5Ac(a2-3)Gal(b1-3)[Fuc(a1-4)]GlcNAc(b1-3)Gal(b1-3)[Fuc(a1-4)]GlcNAc
Method in brief: as §1

[33] = target: Neu5Ac(a2-3)Gal(b1-3)[Fuc(a1-4)]GlcNAc(b1-3)Gal(b1-4)[Fuc(a1-3)]GlcNAc
Method in brief: as §1

[34] = target: Neu5Ac(a2-3)Gal(b1-3)[GlcNAc(b1-6)]GalNAc
Method in brief: as §1

[35] = target: Neu5Ac(a2-3)Gal(b1-3)[Neu5Ac(a2-6)]GalNAc
Method in brief: as §1

[36] = target: Neu5Ac(a2-3)Gal(b1-3)[Neu5Ac(a2-6)]GlcNAc(b1-3)[Fuc(a1-3)[Gal(b1-4)]GlcNAc(b1-6)]Gal(b1-4)Glc
Method in brief: as §1

[37] = target: Neu5Ac(a2-3)Gal(b1-3)]Neu5Ac(a2-3)Gal(b1-4)]GlcNAc
Method in brief: as §1

[38] = target: Neu5Ac(a2-3)Gal(b1-4)Glc
Method in brief: as §1

B1: EULS2 M4 (Oryza sativa) (protein)
chain: MVYCRANPNYAMTARNGAVVLAPANPKDEYQHWIKDMRWSTSIKDEEGYPAFALVNKATGQAIKHSLGQSHPVRLVPYNPEVMDESVLWTESRDVGNGFRCIRMVNNIYLNFDAFHGDKYHGGVRDGTDIVLWKWCEGDSLRWKIQPYYILEQKLISEEDLNSAVDHHHHHH
- glycan array binding signal (z-score) [1]: -0.397
- glycan array binding signal (z-score) [2]: -0.4
- glycan array binding signal (z-score) [3]: -0.525
- glycan array binding signal (z-score) [4]: 0.403
- glycan array binding signal (z-score) [5]: -0.414
- glycan array binding signal (z-score) [6]: -0.459
- glycan array binding signal (z-score) [7]: -0.395
- glycan array binding signal (z-score) [8]: -0.216
- glycan array binding signal (z-score) [9]: -0.494
- glycan array binding signal (z-score) [10]: 0.007
- glycan array binding signal (z-score) [11]: 0.181
- glycan array binding signal (z-score) [12]: 0.713
- glycan array binding signal (z-score) [13]: -0.475
- glycan array binding signal (z-score) [14]: -0.576
- glycan array binding signal (z-score) [15]: 0.18
- glycan array binding signal (z-score) [16]: -0.341
- glycan array binding signal (z-score) [17]: -0.448
- glycan array binding signal (z-score) [18]: -0.469
- glycan array binding signal (z-score) [19]: -0.527
- glycan array binding signal (z-score) [20]: 0.008
- glycan array binding signal (z-score) [21]: -0.043
- glycan array binding signal (z-score) [22]: -0.472
- glycan array binding signal (z-score) [23]: -0.281
- glycan array binding signal (z-score) [24]: -0.345
- glycan array binding signal (z-score) [25]: -0.262
- glycan array binding signal (z-score) [26]: -0.06
- glycan array binding signal (z-score) [27]: -0.188
- glycan array binding signal (z-score) [28]: -0.751
- glycan array binding signal (z-score) [29]: 0.11
- glycan array binding signal (z-score) [30]: 0.416
- glycan array binding signal (z-score) [31]: -0.48
- glycan array binding signal (z-score) [32]: -0.27
- glycan array binding signal (z-score) [33]: -0.011
- glycan array binding signal (z-score) [34]: -0.538
- glycan array binding signal (z-score) [35]: 0.3
- glycan array binding signal (z-score) [36]: -0.071
- glycan array binding signal (z-score) [37]: -0.232
- glycan array binding signal (z-score) [38]: -0.331
